The list shows a part of the results. Single values are uncertain, as repeats are few or missing.
system: IPC-298; experiment: cell count relative to DMSO control; melanoma cells; higher = more viable cells; details: library dose: low library concentration; 72 h
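Further: cell number obtained by counting DAPI-stained nuclei in high-throughput microscope images with image analysis software, screen run in 1,536-well plates.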

Row | SMILES | cell count [%]
1 | COC(=O)c1sccc1S(=O)(=O)Nc1ccc(Nc2ccccc2)cc1OC + C/C(O)=C(\C#N)C(=O)Nc1cc(Br)ccc1Br [LFM-A13] (first compound 1 µM, partner dose 2 µM) | 94.3
2 | Cc1ccc(Nc2nccc(N(C)c3ccc4c(C)n(C)nc4c3)n2)cc1S(N)(=O)=O [Pazopanib] + N.N.[Cl][Pt][Cl] [cisplatin] (first compound 0.4 µM, partner dose 1.6 µM) | 85.8
3 | COc1cc(Nc2ncc(F)c(Nc3ccc4c(n3)NC(=O)C(C)(C)O4)n2)cc(OC)c1OC [Tamatinib] + O=C(Oc1ccc([N+](=O)[O-])cc1)N1CCC(C(O)(c2ccc3c(c2)OCO3)c2ccc3c(c2)OCO3)CC1 [JZL184] (first compound 0.4 µM, partner dose 1 µM) | 87.6

system: IST-MEL1; experiment: as above; details: library dose: low library concentration; 72 h

Row | SMILES | cell count [%]
4 | Cc1cc(N2CCOCC2)cc2[nH]c(-c3c(NC[C@@H](O)c4cccc(Cl)c4)cc[nH]c3=O)nc12 + O=C(Oc1ccc([N+](=O)[O-])cc1)N1CCC(C(O)(c2ccc3c(c2)OCO3)c2ccc3c(c2)OCO3)CC1 [JZL184] (first compound 0.2 µM, partner dose 1 µM) | 96.6
5 | COc1cc2c(Oc3ccc4[nH]c(C)cc4c3F)ncnc2cc1OCCCN1CCCC1 [cediranib] + O=C(Oc1ccc([N+](=O)[O-])cc1)N1CCC(C(O)(c2ccc3c(c2)OCO3)c2ccc3c(c2)OCO3)CC1 [JZL184] (first compound 0.4 µM, partner dose 1 µM) | 102
6 | CCN(CC)CCNC(=O)c1c(C)[nH]c(/C=C2\C(=O)Nc3ccc(F)cc32)c1C [sunitinib] + C[As](C)SC[C@H](NC(=O)CC[C@H](N)C(=O)O)C(=O)NCC(=O)O [Darinaparsin] (first compound 0.4 µM, partner dose 0.4 µM) | 102
7 | COc1ccc2c(c1)CCC1C2CCC2(C)C(NCCCCCCN3C(=O)C=CC3=O)CCC12 (stereo not drawn) + C/C(O)=C(\C#N)C(=O)Nc1cc(Br)ccc1Br [LFM-A13] (first compound 0.4 µM, partner dose 2 µM) | 102
8 | COc1cc2c(Oc3ccc4[nH]c(C)cc4c3F)ncnc2cc1OCCCN1CCCC1 [cediranib] + Cc1cc(SCc2sc(-c3ccc(C(F)(F)F)c(F)c3)nc2C)ccc1OCC(=O)O [GW0742] (first compound 0.4 µM, partner dose 2 µM) | 100
9 | Cn1cncc1[C@@](N)(c1ccc(Cl)cc1)c1ccc2c(c1)c(-c1cccc(Cl)c1)cc(=O)n2C [tipifarnib] + Cc1cc(SCc2sc(-c3ccc(C(F)(F)F)c(F)c3)nc2C)ccc1OCC(=O)O [GW0742] (first compound 0.01 µM, partner dose 2 µM) | 102
10 | O=C(Nc1ccccc1)c1cc([N+](=O)[O-])ccc1Cl + Cc1cc(SCc2sc(-c3ccc(C(F)(F)F)c(F)c3)nc2C)ccc1OCC(=O)O [GW0742] (first compound 2 µM, partner dose 2 µM) | 104
11 | O=C(Oc1ccc([N+](=O)[O-])cc1)N1CCC(C(O)(c2ccc3c(c2)OCO3)c2ccc3c(c2)OCO3)CC1 + O=c1cc(-c2cccc3c2Sc2ccccc2S3)oc(N2CCOCC2)c1 [KU55933] (first compound 1 µM, partner dose 1 µM) | 107
12 | C[C@]1(c2nc3c(C(N)=O)cccc3[nH]2)CCCN1 [Veliparib] + C/C(O)=C(\C#N)C(=O)Nc1cc(Br)ccc1Br [LFM-A13] (first compound 1.4 µM, partner dose 2 µM) | 105
13 | O=C(Nc1ccccc1)c1cc([N+](=O)[O-])ccc1Cl + O=C(Oc1ccc([N+](=O)[O-])cc1)N1CCC(C(O)(c2ccc3c(c2)OCO3)c2ccc3c(c2)OCO3)CC1 [JZL184] (first compound 2 µM, partner dose 1 µM) | 115
14 | CCc1ccc(CCOc2ccc(CC3SC(=O)NC3=O)cc2)nc1 (stereo not drawn) [pioglitazone] + O=C(Oc1ccc([N+](=O)[O-])cc1)N1CCC(C(O)(c2ccc3c(c2)OCO3)c2ccc3c(c2)OCO3)CC1 [JZL184] (first compound 2 µM, partner dose 1 µM) | 106
15 | O=C(Nc1cc(C(F)(F)F)cc(C(F)(F)F)c1)c1cc(Cl)ccc1O + Cn1cc(C2=C(c3cn(C4CCN(Cc5ccccn5)CC4)c4ccccc34)C(=O)NC2=O)c2ccccc21 [Enzastaurin] (first compound 0.016 µM, partner dose 0.8 µM) | 102
16 | Cc1ccc(Nc2nccc(N(C)c3ccc4c(C)n(C)nc4c3)n2)cc1S(N)(=O)=O [Pazopanib] + Cn1cc(C2=C(c3cn(C4CCN(Cc5ccccn5)CC4)c4ccccc34)C(=O)NC2=O)c2ccccc21 [Enzastaurin] (first compound 0.4 µM, partner dose 0.8 µM) | 103
17 | O=C(Nc1cc(C(F)(F)F)cc(C(F)(F)F)c1)c1cc(Cl)ccc1O + N.N.[Cl][Pt][Cl] [cisplatin] (first compound 0.016 µM, partner dose 1.6 µM) | 98.3
18 | O=C(Nc1cccc(Cl)c1)Nc1ncc(CCNc2ncnc3ccsc23)s1 + O=C(Oc1ccc([N+](=O)[O-])cc1)N1CCC(C(O)(c2ccc3c(c2)OCO3)c2ccc3c(c2)OCO3)CC1 [JZL184] (first compound 0.0008 µM, partner dose 1 µM) | 101
19 | N#Cc1c(O)c2c(-c3ccc(-c4ccccc4O)cc3)csc2[nH]c1=O + Cc1cc(SCc2sc(-c3ccc(C(F)(F)F)c(F)c3)nc2C)ccc1OCC(=O)O [GW0742] (first compound 2 µM, partner dose 2 µM) | 93.9
20 | O=C(Nc1cccc(Cl)c1)Nc1ncc(CCNc2ncnc3ccsc23)s1 + Cc1cc(SCc2sc(-c3ccc(C(F)(F)F)c(F)c3)nc2C)ccc1OCC(=O)O [GW0742] (first compound 0.0008 µM, partner dose 2 µM) | 88.3
21 | O=C(Oc1ccc([N+](=O)[O-])cc1)N1CCC(C(O)(c2ccc3c(c2)OCO3)c2ccc3c(c2)OCO3)CC1 + Cn1cc(/C=C2\C(=O)Nc3cccnc32)c2ccccc21 [GW441756] (first compound 1 µM, partner dose 0.4 µM) | 104
22 | Cn1cnc2c(F)c(Nc3ccc(Br)cc3Cl)c(C(=O)NOCCO)cc21 [selumetinib] + C[As](C)SC[C@H](NC(=O)CC[C@H](N)C(=O)O)C(=O)NCC(=O)O [Darinaparsin] (first compound 0.015 µM, partner dose 0.4 µM) | 101
23 | CN(C)S(=O)(=O)c1ccc2c(c1)/C(=C/c1cc3c([nH]1)CCCC3)C(=O)N2 + Cc1cc(SCc2sc(-c3ccc(C(F)(F)F)c(F)c3)nc2C)ccc1OCC(=O)O [GW0742] (first compound 0.4 µM, partner dose 2 µM) | 99.3
24 | C/C(O)=C(\C#N)C(=O)Nc1cc(Br)ccc1Br + CC(C)CCN1c2nc(Nc3cc(F)c(O)c(F)c3)ncc2N(C)C(=O)C1C [BID1870] (first compound 2 µM, partner dose 0.2 µM) | 89.4
25 | Cc1cc(N2CCOCC2)cc2[nH]c(-c3c(NC[C@@H](O)c4cccc(Cl)c4)cc[nH]c3=O)nc12 + C/C(O)=C(\C#N)C(=O)Nc1cc(Br)ccc1Br [LFM-A13] (first compound 0.2 µM, partner dose 2 µM) | 102
26 | CN(C)S(=O)(=O)c1ccc2c(c1)/C(=C/c1cc3c([nH]1)CCCC3)C(=O)N2 + O=C(Oc1ccc([N+](=O)[O-])cc1)N1CCC(C(O)(c2ccc3c(c2)OCO3)c2ccc3c(c2)OCO3)CC1 [JZL184] (first compound 0.4 µM, partner dose 1 µM) | 94.5
27 | C/C(O)=C(\C#N)C(=O)Nc1cc(Br)ccc1Br + O=c1cc(-c2cccc3c2Sc2ccccc2S3)oc(N2CCOCC2)c1 [KU55933] (first compound 2 µM, partner dose 1 µM) | 102
28 | C/C(O)=C(\C#N)C(=O)Nc1cc(Br)ccc1Br + CCCCCCCCCCCC1=C(O)C(=O)C=C(O)C1=O [Embelin] (first compound 2 µM, partner dose 1.2 µM) | 98
29 | C/C(O)=C(\C#N)C(=O)Nc1cc(Br)ccc1Br + O=C(Oc1ccc([N+](=O)[O-])cc1)N1CCC(C(O)(c2ccc3c(c2)OCO3)c2ccc3c(c2)OCO3)CC1 [JZL184] (first compound 2 µM, partner dose 1 µM) | 111
30 | N#Cc1c(O)c2c(-c3ccc(-c4ccccc4O)cc3)csc2[nH]c1=O + O=C(Oc1ccc([N+](=O)[O-])cc1)N1CCC(C(O)(c2ccc3c(c2)OCO3)c2ccc3c(c2)OCO3)CC1 [JZL184] (first compound 2 µM, partner dose 1 µM) | 103
31 | Cn1nnc2c(C(N)=O)ncn2c1=O [temozolomide] + Cc1cc(SCc2sc(-c3ccc(C(F)(F)F)c(F)c3)nc2C)ccc1OCC(=O)O [GW0742] (first compound 2 µM, partner dose 2 µM) | 91.8
32 | NC1(c2ccc(-c3nc4ccn5c(=O)[nH]nc5c4cc3-c3ccccc3)cc2)CCC1 + C[As](C)SC[C@H](NC(=O)CC[C@H](N)C(=O)O)C(=O)NCC(=O)O [Darinaparsin] (first compound 0.4 µM, partner dose 0.4 µM) | 98.6
33 | COc1ccc(-c2ccc3c(N4CCOCC4)nc(N4C[C@@H](C)O[C@@H](C)C4)nc3n2)cc1CO + O=C(Oc1ccc([N+](=O)[O-])cc1)N1CCC(C(O)(c2ccc3c(c2)OCO3)c2ccc3c(c2)OCO3)CC1 [JZL184] (first compound 0.02 µM, partner dose 1 µM) | 105

— the supplement of paper PMC4604168 (melanoma cell lines)
